Consider 31 molecules from US20170114099A1 (Affibody, published 2017).

Sequences and labels used below:
B1: Z06814-ABD (Z06814 fused to ABD variant PP013) (designed binder)
chain: MGSSLQVDAKYAKEEQRAWREIHLLPNLTIEQMAAFIWKLLDDPSQSSELLSEAKKLNDSQAPKVDGSLAEAKEAANAELDSYGVSDFYKRLIDKAKTVEGVEALKDAILAALP
B2: His6-Z06829 (designed binder)
chain: MGSSHHHHHHLQVDAKYAKEEQRAWTEIHVLPNLTVSQMSAFISKLFDDPSQSSELLSEAKKLNDSQAPKVD
B3: His6-Z06802 (designed binder)
chain: B2 chain with E21T, R23H, T26W, V30K, S40A, S44T
B4: His6-Z06814 (designed binder)
chain: B2 chain with T26R, V30L, V36I, S37E, S40A, S44W, F47L
B5: His6-Z06809 (designed binder)
chain: B2 chain with Q22R, R23D, T26R, V30A, S37D, M39L, S40V, S44T
B6: His6-Z06844 (designed binder)
chain: B2 chain with Q22H, R23A, T26L, V30L, S37K, S40A, S44G, F47M
B7: His6-Z06789 (designed binder)
chain: B2 chain with Q22R, R23Q, T26W, V30S, S37D, S40A, S44V, F47M
B8: His6-Z06834 (designed binder)
chain: B2 chain with E21Q, Q22H, R23Q, T26N, V30L, S37N, S40A, S44V
B9: His6-Z06799 (designed binder)
chain: B2 chain with S37Q, S40A, S44T
B10: His6-Z06779 (designed binder)
chain: B2 chain with Q22R, R23S, T26F, V30T, S37Q, M39I, S40A, S44W, F47Y
B11: His6-Z06777 (designed binder)
chain: B2 chain with Q22R, R23K, T26F, V30L, V36T, S37Q, M39R
B12: His6-Z06805 (designed binder)
chain: B2 chain with E21D, Q22R, R23T, T26W, V30K, V36A, S37E, S40A, S44T
B13: His6-Z06792 (designed binder)
chain: B2 chain with Q22R, R23D, T26H, H29Q, V30I, V36I, S37T, S40A
B14: His6-Z06791 (designed binder)
chain: B2 chain with E21Q, Q22A, R23K, T26W, S37H, M39V, S40A, S44T
B15: Z06789-ABD (Z06789 fused to ABD variant PP013) (designed binder)
chain: B1 chain with Q16R, R17Q, R20W, L24S, I30V, E31D, W38V, L41M
B16: Z06799-ABD (Z06799 fused to ABD variant PP013) (designed binder)
chain: B1 chain with R20T, L24V, I30V, E31Q, W38T, L41F
B17: Z06829-ABD (Z06829 fused to ABD variant PP013) (designed binder)
chain: B1 chain with R20T, L24V, I30V, E31S, A34S, W38S, L41F
B18: Z06809-ABD (Z06809 fused to ABD variant PP013) (designed binder)
chain: B1 chain with Q16R, R17D, L24A, I30V, E31D, M33L, A34V, W38T, L41F
B19: His6-Z14700 (designed binder)
chain: B2 chain with Q22R, R23H, T26F, V30K, S37D, S40A, S44T
B20: His6-Z15036 (designed binder)
chain: B2 chain with Q22Y, R23E, T26F, V30A, S37E, S40A, S44T
B21: His6-Z14712 (designed binder)
chain: B2 chain with Q22Y, R23L, T26N, V30K, S37D, S40A, S44T
B22: His6-Z15110 (designed binder)
chain: B2 chain with Q22R, V30S, V36I, S37D, S40A, S44T
B23: His6-Z15142 (designed binder)
chain: B2 chain with Q22R, R23M, T26Y, V30S, S37D, S40A, S44T
B24: His6-Z14862 (designed binder)
chain: B2 chain with Q22A, R23A, T26R, V30L, V36I, S37D, S40A, S44T
B25: His6-Z14984 (designed binder)
chain: B2 chain with Q22K, R23Q, T26R, V30L, V36I, S37D, S40A, S44T
B26: His6-Z14861 (designed binder)
chain: B2 chain with Q22R, R23K, T26I, V30N, V36I, S37D, S40A, S44T
B27: His6-Z15015 (designed binder)
chain: B2 chain with Q22R, R23D, T26W, V30A, S37E, S40A, S44T
B28: His6-Z14976 (designed binder)
chain: B2 chain with Q22R, R23K, T26Y, V30L, S37E, S40A, S44T
B29: His6-Z11632 (designed binder)
chain: B2 chain with Q22R, R23E, T26F, V30T, S40A
B30: His6-Z14630 (designed binder)
chain: B2 chain with Q22K, R23F, T26W, V30K, S37D, M39V, S40A, S44T
B31: His6-Z15122 (designed binder)
chain: B2 chain with Q22R, R23H, T26Y, V30L, V36I, S37D, S40A

Positions count from the first letter of the chain named.

The first assay deals with T1, human interleukin-6 (hIL-6) (human, UniProt P05231 30-212).
T1 sequence: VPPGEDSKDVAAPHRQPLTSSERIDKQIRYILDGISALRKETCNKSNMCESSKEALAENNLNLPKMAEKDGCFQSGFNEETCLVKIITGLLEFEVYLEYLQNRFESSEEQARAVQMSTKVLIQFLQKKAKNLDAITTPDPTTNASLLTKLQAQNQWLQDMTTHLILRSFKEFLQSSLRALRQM
The assay can be described thus: cell-based or functional assay.
Turning to B1, the “IC50, inhibition of IL-6 trans-signaling dependent MCP-1 secretion by HUVECs” value was roughly 1 nM.

For a further assay, the target named is T1, human interleukin-6 (hIL-6). Put plainly: cell-based or functional assay. This is another data set of the same source.
On to B2, for which the “IC50 blocking the IL-6 dependent growth of TF-1 cells” value is 28 nM.

On to B3, for which the “IC50 blocking the IL-6 dependent growth of TF-1 cells” value came to 43 nM.

As to B4, the “IC50 blocking the IL-6 dependent growth of TF-1 cells” value stood at 1.6 nM.

As for B5, the “IC50 blocking the IL-6 dependent growth of TF-1 cells” value was determined as 20 nM.

As to B6, the “IC50 blocking the IL-6 dependent growth of TF-1 cells” value is 110 nM.

As for B7, the “IC50 blocking the IL-6 dependent growth of TF-1 cells” value was determined as 8.6 nM.

Consider B8, for which the “IC50 blocking the IL-6 dependent growth of TF-1 cells” value worked out at 61 nM.

B9: the “IC50 blocking the IL-6 dependent growth of TF-1 cells” value came to 3.9 nM.

As to B10, the “IC50 blocking the IL-6 dependent growth of TF-1 cells” value was 30 nM.

On to B11, for which the “IC50 blocking the IL-6 dependent growth of TF-1 cells” value came to 72 nM.

Turning to B12, the “IC50 blocking the IL-6 dependent growth of TF-1 cells” value amounted to 77 nM.

Regarding B13, the “IC50 blocking the IL-6 dependent growth of TF-1 cells” value was determined as 53 nM.

Consider B14, for which the “IC50 blocking the IL-6 dependent growth of TF-1 cells” value was 5.2 nM.

Regarding B15, the “IC50 blocking the IL-6 dependent growth of TF-1 cells” value was roughly 100 nM.

For the molecule B16, the “IC50 blocking the IL-6 dependent growth of TF-1 cells” value was 2.4 nM.

For the molecule B17, the “IC50 blocking the IL-6 dependent growth of TF-1 cells” value was determined as 15 nM.

As for B1, the “IC50 blocking the IL-6 dependent growth of TF-1 cells” value was 0.8 nM.

As to B18, the “IC50 blocking the IL-6 dependent growth of TF-1 cells” value came out at 10 nM.

For a further assay the target is unchanged. The assay can be described thus: cell-based or functional assay. This is another data set of the same source.
Turning to B19, the “IC50 blocking the IL-6 dependent growth of TF-1 cells” value came to 0.1 nM.

With B20, the “IC50 blocking the IL-6 dependent growth of TF-1 cells” value worked out at 0.18 nM.

B21: the “IC50 blocking the IL-6 dependent growth of TF-1 cells” value stood at 0.22 nM.

B22: the “IC50 blocking the IL-6 dependent growth of TF-1 cells” value is 0.93 nM.

Take B23: the “IC50 blocking the IL-6 dependent growth of TF-1 cells” value amounted to 0.51 nM.

Consider B4, for which the “IC50 blocking the IL-6 dependent growth of TF-1 cells” value stood at 0.13 nM.

For B24, the “IC50 blocking the IL-6 dependent growth of TF-1 cells” value worked out at 0.43 nM.

Regarding B25, the “IC50 blocking the IL-6 dependent growth of TF-1 cells” value was determined as 0.27 nM.

Regarding B26, the “IC50 blocking the IL-6 dependent growth of TF-1 cells” value was determined as 0.19 nM.

With B27, the “IC50 blocking the IL-6 dependent growth of TF-1 cells” value is 0.027 nM.

B28: the “IC50 blocking the IL-6 dependent growth of TF-1 cells” value was 0.042 nM.

Take B29: the “IC50 blocking the IL-6 dependent growth of TF-1 cells” value amounted to 0.12 nM.

As for B30, the “IC50 blocking the IL-6 dependent growth of TF-1 cells” value turned out to be 0.087 nM.

Regarding B31, the “IC50 blocking the IL-6 dependent growth of TF-1 cells” value amounted to 0.085 nM.
